Data on 91 compounds can be found in PubChem BioAssay AID463173 (ICCB-Longwood Screening Facility, Harvard Medical School, 2010).

Out of some 52,000 compounds screened, about 1,700 (3.3%) were called active. Rule as the data show it: active = survival mostly below about 52% (no sharp cut-off); inactive = mostly above about 56%. The list shows a part of the results.

For this test, the system named is Wild type. Description: S. aureus survival, RN4220 and DeltatarO strains – OD600, teichoic acid synthesis inhibitors, primary screen (AID 463173). The settings on record: S. aureus RN4220 wild type/DeltatarO growth, OD600, 18 h, hits give low values, screened at 18.75 µg/mL (by protocol).
For `Cc1ccc(C)c(CN2C(=O)c3ccccc3S(=O)c3ccc(C(=O)NCc4ccccc4Cl)cc32)c1` (stereo unspecified), the survival was inactive: 152%.
As for `Cc1ccc(C)c(N2CCN(C(=O)c3cnc4c(-c5ccccc5)c(C)nn4c3C)CC2)c1`, the figure is inactive: 72%; as for `Cc1ccc(/C=C(\C#N)C(=O)Nc2cc(C)ccc2C)cc1`, inactive: 84%; as for `CCOC(=O)c1c(NC(C)=O)c2c3c(sc2n1Cc1nc(-c2ccccc2OCC)oc1C)CCCC3`, inactive: 91%.
The figure for `CCCCCn1nc(C)c(/C=N\NC(=O)c2cccs2)c1C` is inactive: 129%.
As for `COc1cccc(NC(=O)Cn2cc(C(=O)C3CCCCC3)c3ccccc32)c1`, the figure is inactive: 73%.
Consider `CCN(CC)c1ccc(C(=O)NCc2ccc3c(c2)CCN3C(=O)c2ccccc2)cc1`, for which the survival was inactive: 70%.
Regarding `CCN1CCC(N(Cc2cccc(OC)c2)C(=O)Nc2cccc(C(F)(F)F)c2)CC1`, the survival is inactive: 66%.
The figure for `CCOC(=O)c1c(NC(=O)c2cc(CC)on2)sc(C)c1C` is inactive: 130%.
The figure for `O=C(Nc1ccc(-c2cc(C(F)(F)F)nn2-c2ccccc2)cc1)c1cccc(F)c1` is inactive: 37%; for `Cc1ccc2c(c1)N(C(=O)CCC(=O)Nc1ccccc1Cl)CC(C)O2` (stereo unspecified) it is inactive: 117%; for `O=c1cc(CSc2ncn[nH]2)[nH]c2c(Cl)cccc12` it is inactive: 68%.
For the compound `Brc1ccccc1-n1ncc2c1ncn1nc(Cc3ccccc3)nc21`, the survival was inactive: 77%.
The figure for `O=C(CSc1nnc(NC(=O)NC2CCCCC2)s1)Nc1ccccc1F` is inactive: 71%.
As for `CCOC(=O)c1c(C)[nH]c(C)c1S(=O)(=O)NCC(=O)Nc1cccc(C(F)(F)F)c1`, the figure is inactive: 75%.
As for `O=C(CC1N=C2c3ccccc3N=C(SCc3ccc(Cl)cc3)N2C1=O)NCCc1ccccc1` (stereo unspecified), the figure is inactive: 102%; as for `CCOc1ccc(C2c3c(-c4ccc(C)cc4)n[nH]c3C(=O)N2c2ccc(Cl)cc2)cc1` (stereo unspecified), inactive: 80%.
On to `CC1CCCN(C(=O)Cn2c(=O)oc3cc(S(=O)(=O)N4CCCCC4)ccc32)C1` (stereo unspecified), for which the survival is inactive: 80%.
On to `COc1ccc(-n2c(=O)c3sc4ccccc4c3n(CC(=O)Nc3cccc(C)c3)c2=O)cc1`, for which the survival is inactive: 85%.
The figure for `CCc1cc(C#N)c(O)cn1` is inactive: 102%; for `CCOC(=O)N1CCc2c(sc3c2c(=O)n(CCc2ccccc2)c(=O)n3Cc2cc(C)ccc2C)C1` it is inactive: 92%.
The figure for `COCCNC(=O)Cn1cc(S(=O)(=O)Cc2ccccc2Cl)c2ccccc21` is inactive: 135%; for `Cc1ccc(NC(=O)C(Cc2ccccc2)NS(=O)(=O)c2ccc3c(c2)oc(=O)n3C)c(Cl)c1` (stereo unspecified) it is inactive: 85%.
As for `COc1ccccc1NC(=O)c1cc(S(=O)(=O)N(C)C2CCCCC2)ccc1F`, the figure is inactive: 80%; as for `O=C(/C=C/c1ccco1)NC(=S)Nc1ccccc1O`, inactive: 119%.
`COc1ccccc1NC(=O)C1=C(C)Nc2nc(SCc3ccccc3)nn2C1c1ccccn1` (stereo unspecified): the survival was inactive: 65%.
As for `CCOc1ccccc1NC(=O)c1cn(C2CCCC2)c(=O)c2c1c1ccccc1n2C`, the figure is inactive: 126%; as for `CN(C)c1nc(Nc2ccccc2)nc(N(C)C)n1`, inactive: 106%; as for `COc1ccc(C(=O)Nc2ccccc2C(=O)OCc2cc(=O)n3c4c(sc3n2)CCCC4)cc1`, inactive: 68%.
`COc1cc(OC)c(Nc2nc3ccc(C)cc3n3nnnc23)cc1Cl`: the survival was inactive: 134%.
Consider `O=C(CCC(=O)N1CC2CCCN2c2ccccc21)NCc1ccccc1Cl` (stereo unspecified), for which the survival was inactive: 69%.
The figure for `Cc1nc2c(c(C)c1CCC(=O)Nc1cccc(C(F)(F)F)c1)c(=O)n(C)c(=O)n2C` is inactive: 78%; for `Cc1nnc(NC(=O)CSc2nccn2-c2cccc(Cl)c2)s1` it is inactive: 73%; for `CC1CCCN(S(=O)(=O)c2cc3c(cc2Cl)NC(=O)CO3)C1` (stereo unspecified) it is inactive: 82%.
As for `O=C(O)CC1NC(=O)N(c2ccccc2)C1=O` (stereo unspecified), the figure is inactive: 106%; as for `COC(=O)c1c(NC(=O)c2cccc(OC)c2)sc2c1CCC(C(C)(C)C)C2` (stereo unspecified), inactive: 32%; as for `CO/N=C/c1ccc(OC)c(OC)c1`, inactive: 106%.
The figure for `COc1ccccc1CNc1nc2nc(C)c(Cl)c(C)n2n1` is inactive: 116%.
Consider `CN1C(=O)CC(N2CCN(C/C=C/c3ccccc3)CC2)C1=O` (stereo unspecified), for which the survival is inactive: 117%.
In the case of `COCCCNC(=O)c1ccc2c(c1)N=C(C)c1c(C)ccc(C)c1S2`, the survival was inactive: 85%.
The figure for `O=C(CSc1nc2ccccc2c(=O)[nH]1)c1ccc(O)cc1O` is inactive: 105%; for `Cc1cccc(-c2nc(SCC(=O)Nc3cc(C)on3)c3c(=O)n(C)c(=O)n(C)c3n2)c1` it is inactive: 54%; for `COc1ccc(N2CCN(c3ccc(-c4nc(-c5ccccc5C)no4)cc3[N+](=O)[O-])CC2)cc1` it is inactive: 88%.
Consider `Cc1ccc(NC(=O)N2CCC(N3CCN(Cc4ccccc4)C(=O)C3=O)CC2)cc1Cl`, for which the survival was inactive: 71%.
The figure for `Cc1ccc2oc(=O)c3cc(C(=O)N4CCN(c5ccccc5)CC4)sc3c2c1` is inactive: 76%.
Take `Cc1cccc(CNC(=O)C2CCCN(S(=O)(=O)c3cn(C)cn3)C2)c1` (stereo unspecified): the survival is inactive: 81%.
As for `COc1ccccc1CNC(=O)CCn1c(=O)c2ccccc2n(CC(=O)Nc2ccc(C)cc2)c1=O`, the figure is inactive: 131%.
As for `Cn1nnnc1SCCCNCc1ccc(-c2ccc(Br)cc2)o1`, the figure is inactive: 51%; as for `NNC1=NC2CS(=O)(=O)CC2S1` (stereo unspecified), inactive: 101%; as for `CCCCCn1c(=O)[nH]c2cc(C(=O)Nc3cc(OC)cc(OC)c3)ccc2c1=O`, inactive: 76%.
On to `S=C(NCc1ccco1)NC1CCCCC1`, for which the survival was inactive: 111%.
As for `Cc1ccccc1CCNC(=O)c1ccc2c(c1)c(C)c(C)n2C`, the survival was inactive: 74%.
For the compound `COC(=O)c1cc2oc3ccccc3c2n1Cc1cccc(C)c1`, the survival was active: 3%.
As for `CN(C)S(=O)(=O)c1ccc2c(c1)N(CC(=O)NCc1ccccc1)C(=O)C1CCCCN21` (stereo unspecified), the figure is inactive: 60%.
The figure for `O=S(=O)(NCc1ccccc1)c1cccs1` is inactive: 111%; for `CCC1CN(C(=O)NCc2ccc(C)cc2)c2cc(C)ccc2O1` (stereo unspecified) it is inactive: 89%.
The figure for `CCCCCNC(=O)c1c[nH]c2ccc(S(=O)(=O)N3CCC(C)CC3)cc2c1=O` is inactive: 89%.
On to `Cc1nn(S(=O)(=O)c2ccc(C(C)C)cc2)c(C)c1S(=O)(=O)N1CCCCCC1`, for which the survival is inactive: 56%.
As for `Cc1ccc(NC(=O)CSc2nc3ccccc3nc2Cc2ccccc2F)cc1F`, the figure is inactive: 115%; as for `COc1ccc(C(=O)N(CC(=O)NC2CCCC2)Cc2ccc3c(c2)OCO3)cc1OC`, inactive: 105%.
As for `O=S1(=O)N=C(NNS(=O)(=O)c2ccccc2)c2ccccc21`, the figure is inactive: 105%.
The figure for `COc1ccc(-c2nsc(NC(=O)COc3ccc(C)c(C)c3)n2)cc1` is inactive: 98%.
For the compound `CCc1ccccc1NC(=O)C1(S(=O)(=O)c2ccc(Cl)cc2)CC1`, the survival is inactive: 90%.
With `Cc1ccc(C)c(N2CCN(C(=O)c3cc4ccc5cccnc5c4[nH]3)CC2)c1`, the survival was inactive: 87%.
As for `CCOC(=O)c1c(C)oc2ncnc(Nc3ccc(F)cc3Cl)c12`, the figure is inactive: 126%; as for `Cc1cc(C)cc(NC(=O)CN2C(=O)CSc3ccc(S(=O)(=O)N(C)C)cc32)c1`, inactive: 83%.
As for `COc1cc(C(=O)NCC(c2ccc(N(C)C)cc2)N2CCc3ccccc32)cc(OC)c1OC` (stereo unspecified), the figure is inactive: 95%.
On to `Cc1ccc(-c2nc3n(n2)C(c2ccccc2C)C=C(c2ccc(Cl)cc2)N3)cc1` (stereo unspecified), for which the survival was inactive: 76%.
In the case of `COc1ccccc1CNC(=O)CS(=O)(=O)c1cccc2nsnc12`, the survival is inactive: 86%.
As for `COc1ccc(-c2oc3ncn4nc(-c5cccc(C)c5)nc4c3c2-c2ccc(OC)cc2)cc1`, the figure is inactive: 68%; as for `COc1cc(C(=O)Nc2nnc(S(=O)(=O)N(C)c3ccccc3)s2)cc(OC)c1OC`, inactive: 62%.
As for `Cc1ccc(CN2C(=O)c3ccccc3Sc3ccc(C(=O)NC4CCCCC4)cc32)cc1`, the figure is inactive: 73%; as for `O=c1oc(-c2cccc3ncccc23)nn1Cc1ccccc1F`, inactive: 107%; as for `COc1ccc(OC)c(NC(=O)CCn2cnnn2)c1`, inactive: 73%.
Consider `COc1ccc(CCNC(=O)c2cc(-c3ccc(C)cc3)nc3n[nH]c(-c4ccccc4)c23)cc1OC`, for which the survival is inactive: 153%.
As for `COc1ccc(CNC(=O)c2cc3c(=O)[nH]c4ccc(C)cc4c3s2)c(OC)c1`, the figure is inactive: 60%.
Regarding `Cc1ccc2cc(C#N)c(NCc3ccccc3)nc2c1`, the survival was inactive: 115%.
As for `Cc1ccc(C)c2[nH]c(=O)c(C(c3nnnn3Cc3ccccc3)N3CCN(C)CC3)cc12` (stereo unspecified), the figure is inactive: 117%.
As for `Cc1ccn2c(Nc3ccc(F)cc3)c(-c3ccc(C)o3)nc2c1`, the figure is inactive: 94%; as for `O=C(CSc1ncc(CO)n1Cc1ccccc1)Nc1nc2ccccc2s1`, inactive: 124%; as for `O=C(NC1CC(=O)N(c2ccc(F)cc2)C1)c1cccs1` (stereo unspecified), inactive: 88%.
The figure for `COc1cc(CN(C(=O)COc2ccc(Br)cc2)c2ccccn2)cc(OC)c1OC` is inactive: 81%; for `CC(=O)N(Cc1cc2cc(C)c(C)cc2n2nnnc12)CC1COCCO1` (stereo unspecified) it is inactive: 111%.
In the case of `COc1ccc(CNC(=O)C2CCN(c3nc4ccccc4[nH]3)CC2)c(OC)c1`, the survival was inactive: 130%.
As for `COc1cc2nc(SCc3ccc(Cl)cc3)n3nc(CCn4nc(C)cc4C)nc3c2cc1OC`, the figure is inactive: 71%.
As for `COC(=O)c1cccc(NC(=O)C2CCN(S(=O)(=O)Cc3ccccc3)CC2)c1C`, the figure is inactive: 100%.
The figure for `CCCCOc1ccc(OC(=O)c2sc3ncn(Cc4cccc(F)c4)c(=O)c3c2C)cc1` is inactive: 59%.
With `CC(=O)c1sc2c(c1C)c(=O)n(-c1ccc(Cl)cc1)c(=O)n2Cc1cc(=O)n2cc(Cl)ccc2n1`, the survival is inactive: 78%.
The figure for `Cc1nn(C(=O)c2ccc(Cl)cc2)c(C)c1Sc1ccc(Cl)cc1` is inactive: 40%.
`CCCSc1nc2sc3c(c2c(=O)n1-c1ccccc1)CCC(C)C3` (stereo unspecified): the survival was active: 1%.
As for `Cc1cc(NC(=O)CSc2nc(-c3ccccc3F)nc3c2c(=O)n(C)c(=O)n3C)no1`, the figure is inactive: 88%.
